# The list shows a part of the results.
# What was measured:
# Experiment in all cases: glycan array binding signal (z-score within array); higher = stronger binding
# Details in all cases: glycan notation: IUPAC condensed, linker removed
# [1] = molecular target: Neu5Ac(a2-3)Gal(b1-4)GlcNAc6S
# Summary of the method: (§1)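 The Consortium for Functional Glycomics database supplied 3228 glycan arrays, of which those lacking an available protein sequence were dropped. The binding signal, a within-array Z-score, was averaged across arrays of the same protein sequence and across linkers. Negative scores can be read as non-binding.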
# [2] = molecular target: Neu5Ac(a2-3)Gal(b1-4)[Fuc(a1-3)]GlcNAc
# Summary of the method: as §1
# [3] = molecular target: Neu5Ac(a2-3)Gal(b1-4)[Fuc(a1-3)]GlcNAc(b1-3)Gal
# Summary of the method: as §1
# [4] = molecular target: Neu5Ac(a2-3)Gal(b1-4)[Fuc(a1-3)]GlcNAc(b1-3)Gal(b1-4)GlcNAc
# Summary of the method: as §1
# [5] = molecular target: Neu5Ac(a2-3)Gal(b1-4)[Fuc(a1-3)]GlcNAc(b1-3)Gal(b1-4)[Fuc(a1-3)]GlcNAc(b1-3)Gal(b1-4)[Fuc(a1-3)]GlcNAc
# Summary of the method: as §1
# [6] = molecular target: Neu5Ac(a2-3)Gal(b1-4)[Fuc(a1-3)]GlcNAc6S
# Summary of the method: as §1
# [7] = molecular target: Neu5Ac(a2-3)Gal6S(b1-4)GlcNAc
# Summary of the method: as §1
# [8] = molecular target: Neu5Ac(a2-3)Gal6S(b1-4)[Fuc(a1-3)]GlcNAc
# Summary of the method: as §1
# Neu5Ac(a2-3)GalNAc = molecular target: Neu5Ac(a2-3)GalNAc
# Summary of the method: as §1
# [9] = molecular target: Neu5Ac(a2-3)GalNAc(b1-4)GlcNAc
# Summary of the method: as §1
# [10] = molecular target: Neu5Ac(a2-3)[GalNAc(b1-4)]Gal(b1-4)Glc
# Summary of the method: as §1
# [11] = molecular target: Neu5Ac(a2-3)[GalNAc(b1-4)]Gal(b1-4)GlcNAc
# Summary of the method: as §1
# [12] = molecular target: Neu5Ac(a2-3)[Neu5Ac(a2-6)]GalNAc
# Summary of the method: as §1
# Neu5Ac(a2-6)Gal = molecular target: Neu5Ac(a2-6)Gal
# Summary of the method: as §1
# Neu5Ac(a2-6)Gal(b1-4)Glc = molecular target: Neu5Ac(a2-6)Gal(b1-4)Glc
# Summary of the method: as §1
# [13] = molecular target: Neu5Ac(a2-6)Gal(b1-4)GlcNAc
# Summary of the method: as §1
# [14] = molecular target: Neu5Ac(a2-6)Gal(b1-4)GlcNAc(b1-3)Gal(b1-4)GlcNAc
# Summary of the method: as §1
# [15] = molecular target: Neu5Ac(a2-6)Gal(b1-4)GlcNAc(b1-3)Gal(b1-4)[Fuc(a1-3)]GlcNAc(b1-3)Gal(b1-4)[Fuc(a1-3)]GlcNAc
# Summary of the method: as §1
# [16] = molecular target: Neu5Ac(a2-6)Gal(b1-4)GlcNAc6S
# Summary of the method: as §1
# Neu5Ac(a2-6)GalNAc = molecular target: Neu5Ac(a2-6)GalNAc
# Summary of the method: as §1
# [17] = molecular target: Neu5Ac(a2-6)GalNAc(b1-4)GlcNAc
# Summary of the method: as §1
# Neu5Ac(a2-8)Neu5Ac = molecular target: Neu5Ac(a2-8)Neu5Ac
# Summary of the method: as §1
# [18] = molecular target: Neu5Ac(a2-8)Neu5Ac(a2-3)Gal(b1-4)Glc
# Summary of the method: as §1
# [19] = molecular target: Neu5Ac(a2-8)Neu5Ac(a2-3)[GalNAc(b1-4)]Gal(b1-4)Glc
# Summary of the method: as §1
# [20] = molecular target: Neu5Ac(a2-8)Neu5Ac(a2-8)Neu5Ac
# Summary of the method: as §1
# [21] = molecular target: Neu5Ac(a2-8)Neu5Ac(a2-8)Neu5Ac(a2-3)Gal(b1-4)Glc
# Summary of the method: as §1
# [22] = molecular target: Neu5Ac(a2-8)Neu5Ac(a2-8)Neu5Ac(a2-3)[GalNAc(b1-4)]Gal(b1-4)Glc
# Summary of the method: as §1
# [23] = molecular target: Neu5Ac(a2-8)Neu5Ac(a2-8)Neu5Ac(a2-8)Neu5Ac(a2-3)[GalNAc(b1-4)]Gal(b1-4)Glc
# Summary of the method: as §1
# Neu5Ac(b1-6)GalNAc = molecular target: Neu5Ac(b1-6)GalNAc
# Summary of the method: as §1
# [24] = molecular target: Neu5Ac(b2-6)Gal(b1-4)GlcNAc
# Summary of the method: as §1
# [25] = molecular target: Neu5Ac9Ac(a2-6)Gal(b1-4)GlcNAc
# Summary of the method: as §1
# [26] = molecular target: Neu5Gc(a2-3)Gal(b1-3)GlcNAc
# Summary of the method: as §1
# [27] = molecular target: Neu5Gc(a2-3)Gal(b1-3)[Fuc(a1-4)]GlcNAc
# Summary of the method: as §1
# Neu5Gc(a2-3)Gal(b1-4)Glc = molecular target: Neu5Gc(a2-3)Gal(b1-4)Glc
# Summary of the method: as §1
# [28] = molecular target: Neu5Gc(a2-3)Gal(b1-4)GlcNAc
# Summary of the method: as §1
# [29] = molecular target: Neu5Gc(a2-3)Gal(b1-4)[Fuc(a1-3)]GlcNAc
# Summary of the method: as §1
# [30] = molecular target: Neu5Gc(a2-6)Gal(b1-4)GlcNAc
# Summary of the method: as §1
# Neu5Gc(a2-6)GalNAc = molecular target: Neu5Gc(a2-6)GalNAc
# Summary of the method: as §1
binder,measurement,setting,value
"Siglec-H (Mus musculus), Q4QQK7 (protein) MLLSRLLPLLWVLKWASGNCFILPREVIGTYPSLTLELQSVTVQEGLCVLVPCHLIEYPMNRWSDAAFGYWFHEGENTHPDSLVATNKPYQLVQKEMQSRFHFSGDCSLDIRDAQKGDNGSYFFRLEKGGKTWNFCEERISVHVTDLTHSPNISIPQTLELGRPTNVMCSVPWACERGTPPIFSWMSAALISLGPTTTLSSVLTLTPRLQDHGTNLTCQVTFPGAGVTVQKTIQLNVTYNSQNSTAHVSGRVGPGKPRPLADVVQVAMGEAAIKFLLLGICFFFLSKRSHTKRVERPATHMDQAHAVMD",glycan array binding signal (z-score),[1],-0.092
same,glycan array binding signal (z-score),[2],-0.197
same,glycan array binding signal (z-score),[3],-0.235
same,glycan array binding signal (z-score),[4],-0.264
same,glycan array binding signal (z-score),[5],-0.272
same,glycan array binding signal (z-score),[6],-0.306
same,glycan array binding signal (z-score),[7],-0.332
same,glycan array binding signal (z-score),[8],-0.309
same,glycan array binding signal (z-score),Neu5Ac(a2-3)GalNAc,1.76
same,glycan array binding signal (z-score),[9],-0.076
same,glycan array binding signal (z-score),[10],-0.261
same,glycan array binding signal (z-score),[11],-0.192
same,glycan array binding signal (z-score),[12],-0.259
same,glycan array binding signal (z-score),Neu5Ac(a2-6)Gal,-0.372
same,glycan array binding signal (z-score),Neu5Ac(a2-6)Gal(b1-4)Glc,-0.319
same,glycan array binding signal (z-score),[13],-0.199
same,glycan array binding signal (z-score),[14],1.02
same,glycan array binding signal (z-score),[15],-0.217
same,glycan array binding signal (z-score),[16],-0.291
same,glycan array binding signal (z-score),Neu5Ac(a2-6)GalNAc,-0.358
same,glycan array binding signal (z-score),[17],-0.382
same,glycan array binding signal (z-score),Neu5Ac(a2-8)Neu5Ac,-0.241
same,glycan array binding signal (z-score),[18],-0.342
same,glycan array binding signal (z-score),[19],-0.318
same,glycan array binding signal (z-score),[20],-0.254
same,glycan array binding signal (z-score),[21],-0.277
same,glycan array binding signal (z-score),[22],-0.358
same,glycan array binding signal (z-score),[23],1.43
same,glycan array binding signal (z-score),Neu5Ac(b1-6)GalNAc,0.697
same,glycan array binding signal (z-score),[24],-0.378
same,glycan array binding signal (z-score),[25],1.42
same,glycan array binding signal (z-score),[26],-0.389
same,glycan array binding signal (z-score),[27],0.026
same,glycan array binding signal (z-score),Neu5Gc(a2-3)Gal(b1-4)Glc,-0.282
same,glycan array binding signal (z-score),[28],-0.295
same,glycan array binding signal (z-score),[29],-0.29
same,glycan array binding signal (z-score),[30],1.11
same,glycan array binding signal (z-score),Neu5Gc(a2-6)GalNAc,0.696
